In paper PMC12136788:
The list shows a part of the results.

B1: chr4:99339852:99339853:+_ENSG00000138698_ENST00000453712|hu_mus|FALSE|FALSE (ssRNA)
RNA: GGGAGUUCUACAGUCCGACGAUCGGCGUGCUGCACCGUCACGUUCCCGUCUUCUACGUGUCUGUCCAGCAAAUCCAUGAGUUUUUCUACAAUCCCAUUGUCUACCAUAUGAAUACAAUUUCCAUCGUUCCUGGCAAAAUUUGCCAACAGAGGAUUGAGCAUCA
B2: chr5:71490152:71490153:+_ENSG00000131711_ENST00000296755|hu_mus|FALSE|FALSE (ssRNA)
RNA: GGGAGUUCUACAGUCCGACGAUCUACGUUGAGAAACACAACCCCCAGGUCAGGGGAGAUGAGGUUUUUCAUCCAGUCACUGUUGCUGGUGGACCCCUGGGACCGCUCCUCUUCCAGCUCUGCAAUCUUGCGCUGCAGCAUGCUCAACAGAGGAUUGAGCAUCA
B3: chr8:95500983:95500984:-_ENSG00000164944_ENST00000437199|hu_hu|hu_hu_hu_mus_True|38_108 (ssRNA)
RNA: GGGAGUUCUACAGUCCGACGAUCAGAAGGAUUUUUACGAGUAAAGGACCGUACAUGACGGCCUCUACCACUGCCUCCACUAACAAACUUUCCUCUCUGAGCCUCCAUGCCGCUAUUUGUACUAGCCCAGGACGGUCCCAGGCCCAACAGAGGAUUGAGCAUCA
B4: chr10:98281081:98281082:-_ENSG00000077147_ENST00000371142|hu_hu|FALSE|FALSE (ssRNA)
RNA: GGGAGUUCUACAGUCCGACGAUCAAGAAAAAAGUACUCUGUAGUCGAUCUGUACAUCCAAAUGCAUUUGGGAAUCUACACCUACGUUACAUUAUUUAAUGUUAUAUACAUUUAUUACCCACCCCCCUUGUUUUUAAUAAUUUCCAACAGAGGAUUGAGCAUCA
B5: chr2:5814250:5814251:-_ENSMUSG00000025816_ENSMUST00000102981|mus_hu|motif|central (ssRNA)
RNA: GGGAGUUCUACAGUCCGACGAUCUUCCUUUCCGGUUUCUGAAUUUCUGGUAGAACUGCACAGAAUGGUUUGAUAACUUCGGAAAAUUUGAUGCCCAUGGCUGCUGCUGGGGAGGCCCAGGGGGAAACCGCGGCCUCGGCGCUGCAACAGAGGAUUGAGCAUCA
B6: chr7:10978501:10978502:-_ENSG00000189043_ENST00000339600|hu_hu|FALSE|FALSE (ssRNA)
RNA: GGGAGUUCUACAGUCCGACGAUCAUUGAACAAUGCCAGACGCAAGAGAUACAGUGUUGCUCCAGUAGCUCCAGUUCCAAUAAAUACAAAGAGGGGGAUCAAGCUCGGAUGCUUCUUGGCCUGACCGAUGAUCUGGCGGAGCAUCAACAGAGGAUUGAGCAUCA

Biological target: T1, UNK ZnF1-3 (human, UniProt Q9C0B0 31-174)
T1 sequence: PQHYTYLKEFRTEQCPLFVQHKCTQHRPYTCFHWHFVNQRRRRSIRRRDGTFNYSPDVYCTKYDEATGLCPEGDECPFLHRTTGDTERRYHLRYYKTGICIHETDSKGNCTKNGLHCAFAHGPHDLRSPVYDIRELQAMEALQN
Test: nsRBNS (natural sequence RNA bind-n-seq); RBNS binding buffer (assumed for nsRBNS): 25 mM Tris pH 7.5, 150 mM KCl, 3 mM MgCl2, 0.01% Triton X-100, 500 ug/ml BSA, 20 U/ml SUPERase-In, 4 C; UNK is unkempt and MSI1 is Musashi-1; names of the RNAs are library labels; protein concentration not given here; high values mean tight binding

| Binder | binding signal |
| --- | --- |
| B1 | 0.638 enrichment R |
| B2 | 0.926 enrichment R |
| B3 | 0.956 enrichment R |
| B4 | 1.97 enrichment R |
| B5 | 1.34 enrichment R |
| B6 | 1.85 enrichment R |
